These results are taken from patent US20240124563A1 (NANJING ZAIMING PHARMACEUTICAL, published 2024).

The target in assay [1] is T1, human MSLN full-length protein, recombinant, on CHO-K1 or HEK293T cells (human, UniProt Q13421 296-598).
T1 construct: The background says that the precursor is cleaved by furin to the mature membrane form; also called hMSLN; CHO-K1-hMSLN-2C8
The assay is described as follows: competitive FACS on CHO-K1-human MSLN-2C8 cells vs Biotin-Tab142; competitor at 100 nM.

Assay [2] concerns the target T2, human MSLN protein endogenously expressed on tumor cells (Hela, OVCAR3) (human, UniProt Q13421 296-598).
T2 construct: whole, on cells
The assay is described as follows: FACS, OVCAR3 cells, antibody 2 nM. Background: Flow cytometry measures light scatter and fluorescence of single cells or particles in a stream.

Assay [3] addresses T1, human MSLN full-length protein, …. The assay is described as follows: competitive FACS on CHO-K1-human MSLN-2C8 cells vs Biotin-Tab142; competitor at 20 nM.
The target in assay [4] is T3, human MSLN-FL-his protein (human, UniProt Q13421 296-580).
T3 construct: Made in HEK293E cells, purified on nickel column; also called hMSLN-FL-his; not shown: histidine tag
The experiment in a line: competitive ELISA on MSLN-FL-His; other antibody: NB149-34 (3.m8). (ELISA stands for enzyme-linked immunosorbent assay.)

The target of assay [5] is T3, human MSLN-FL-his protein. The experiment in a line: competitive ELISA on MSLN-FL-His; other antibody: Tab107 (C) (1.m4).
T3 sequence (Q13421 other isoform, or with tags, fused parts or gaps): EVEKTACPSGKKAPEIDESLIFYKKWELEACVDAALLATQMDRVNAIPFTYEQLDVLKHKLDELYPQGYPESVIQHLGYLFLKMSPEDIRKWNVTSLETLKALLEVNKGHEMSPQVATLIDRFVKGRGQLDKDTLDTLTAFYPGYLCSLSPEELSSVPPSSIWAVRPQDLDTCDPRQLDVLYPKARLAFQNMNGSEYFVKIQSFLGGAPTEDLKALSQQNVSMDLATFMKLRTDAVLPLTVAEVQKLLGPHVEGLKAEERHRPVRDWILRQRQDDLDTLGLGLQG
Assay [6] deals with T3, human MSLN-FL-his protein. The assay is described as follows: competitive ELISA on MSLN-FL-His; other antibody: NB148-35 (3.m4).
Assay [7] has as its target T1, human MSLN full-length protein, …. The experiment in a line: competitive FACS on CHO-K1-human MSLN-2C8 cells vs Biotin-Tab142; competitor at 0.00128 nM.
Assay [8] concerns the target T3, human MSLN-FL-his protein. The assay is described as follows: SPR, antibody captured on Protein A chip, MSLN-FL-his injected, 1:1 model. Background: SPR reads the build-up and loss of mass on a sensor chip optically.
For assay [9], the target named is T1, human MSLN full-length protein, …. The assay is described as follows: FACS, HEK293T-hMSLN-B8 cells, antibody 20 nM.
The target is the same in assay [10]. The experiment in a line: competitive FACS on CHO-K1-human MSLN-2C8 cells vs Biotin-Tab142; competitor at 0.0064 nM.
Assay [11] shares this target. The experiment in a line: FACS, HEK293T-hMSLN-B8 cells, antibody 0.2 nM.
The target in assay [12] is T3, human MSLN-FL-his protein. The assay is described as follows: competitive ELISA on MSLN-FL-His; other antibody: NB148-46 (3.m5).
Assay [13] addresses T3, human MSLN-FL-his protein. The experiment in a line: competitive ELISA on MSLN-FL-His; other antibody: NB148-27 (3.m3).
Assay [14] deals with T4, chimeric human MSLN-R3 / chicken MSLN-R1-2 protein on HEK293T cells (clone A5) (chicken; human).
T4 construct: range 327-514; Human R1-R2 replaced by chicken R1-R2; also called HEK293T-chickR1-2/hR3-A5; HEK293T-hR3/chickR1-2-A5
The assay is described as follows: FACS, HEK293T-hR3/chickR1-2-A5 cells, antibody 20 nM.

The target of assay [15] is T3, human MSLN-FL-his protein. The assay is described as follows: competitive ELISA on MSLN-FL-His; other antibody: Tab142 (R1) (3.m16).
Assay [16] addresses T3, human MSLN-FL-his protein. The assay is described as follows: competitive ELISA on MSLN-FL-His; other antibody: NB148-88 (3.m6).
The target of assay [17] is T1, human MSLN full-length protein, …. The assay is described as follows: competitive FACS on CHO-K1-human MSLN-2C8 cells vs Biotin-Tab142; competitor at 0.8 nM.
Assay [18] addresses T3, human MSLN-FL-his protein. The assay is described as follows: competitive ELISA on MSLN-FL-His; other antibody: NB148-13 (3.m1).
The target of assay [19] is T1, human MSLN full-length protein, …. The experiment in a line: competitive FACS on CHO-K1-human MSLN-2C8 cells vs Biotin-Tab142; competitor at 0.16 nM.
The target of assay [20] is T3, human MSLN-FL-his protein. The assay is described as follows: competitive ELISA on MSLN-FL-His; other antibody: Tab108 (R3) (3.m14).
For assay [21], the target named is T3, human MSLN-FL-his protein. The assay is described as follows: competitive ELISA on MSLN-FL-His; other antibody: NB149-95 (3.m11).
Assay [22] addresses T1, human MSLN full-length protein, …. The assay is described as follows: competitive FACS on CHO-K1-human MSLN-2C8 cells vs Biotin-Tab142; competitor at 4 nM.

B1: NB148-46 VHH-hFc (Fc fusion)
chain: EVQLVESGGGLVQAGGSLRLSCAASGSTFSSYPMGWYRQAPGKQRELVAAISSGGSTNYADSVKGRFTISRDNAKNTVYLQMNSLKPEDTAVYYCNTRSPRVPNDSWGQGTQVTVSS[human IgG1 Fc with changes not written out]
A word on the Kd: it is the equilibrium constant for the complex coming apart. Read a low Kd as tighter binding. As a reminder, the koff is the first-order rate constant of dissociation. One may read the kon as the rate constant with which the complex forms. On to B1, for which the “MFI of Biotin-Tab142” value in assay [1] is 19500; in [3], 24900; in [7], 42600; in assay [10], 43800; in [17], 39300; in [19] it was 41000. The “MFI of Biotin-Tab142” value in assay [22] is 33500. Moreover, the MFI in assay [2] was determined as 7150; in assay [9], 25700; in assay [11], 1280; in assay [14] it was 73. Moreover, the inhibition rate in assay [4] is 85%; in assay [5], -6%; in assay [6], -10%; in assay [12], 87%; in assay [13], 75%; in assay [15] it was 86%. In addition, the inhibition rate in [16] is 6%; in assay [18], -13%; in assay [20], -8%; in assay [21], 81%. Moreover, the Kd in assay [8] came out at 3.33 nM. In addition, the koff in assay [8] stood at 0.003 s⁻¹. Also, the kon in assay [8] stood at 902000 M⁻¹ s⁻¹.
